For 153 variants, enrichment ratio results are on record in a collection of fitness landscapes (doi:10.1126/science.1257360).

This is one part of the list. Some results are limits rather than exact numbers.

To fix the notation:
B1: PhoQ; a variant is named by its letters at X, in order, P23837 (parent)
chain: MKKLLRLFFPLSLRVRFLLATAAVVLVLSLAYGMVALIGYSVSFDKTTFRLLRGESNLFYTLAKWENNKLHVELPENIDKQSPTMTLIYDENGQLLWAQRDVPWLMKMIQPDWLKSNGFHEIEADVNDTSLLLSGDHSIQQQLQEVREDDDDAEMTHSVAVNVYPATSRMPKLTIVVVDTIPVELKSSYMVWSWFIYVLSANLLLVIPLLWVAAWWSLRPIEALAKEVRELEEHNRELLNPATTRELTSLVRNLNRLLKSERERYDKYRTTLTDLTHSLKTPLXXLQXXLRSLRSEKMSVSDAEPVMLEQISRISQQIGYYLHRASMRGGTLLSRELHPVAPLLDNLTSALNKVYQRKGVNISLDISPEISFVGEQNDFVEVMGNVLDNACKYCLEFVEISARQTDEHLYIVVEDDGPGIPLSKREVIFDRGQRVDTLRPGQGVGLAVAREITEQYEGKIVAGESMLGGARMEVIFGRQHSAPKDE

Variants of B1 are the subject of this assay. Kind of assay: enrichment ratio after two sorts for PhoP signalling (ratio (wild type AVST 3.29)); higher = more functional. To be noted: with PhoP (E. coli).
As for PYLP, the enrichment ratio is at most 0.25.

On to NVVG, for which the enrichment ratio was at most 0.25.

Consider FGVI, for which the enrichment ratio is 2.59.

For the variant PMSQ, the enrichment ratio was at most 0.25.

For KQIV, the enrichment ratio was at most 0.25.

In the case of NCLL, the enrichment ratio amounted to 2.83.

Consider QACQ, for which the enrichment ratio was at most 0.25.

ATNP: the enrichment ratio is at most 0.25.

Turning to EWFF, the enrichment ratio is at most 0.25.

In the case of VNNA, the enrichment ratio is at most 0.25.

For LGGY, the enrichment ratio was at most 0.25.

For QHIV, the enrichment ratio was at most 0.25.

As to NPIV, the enrichment ratio is at most 0.25.

As for QTCP, the enrichment ratio was at most 0.25.

As to QMLY, the enrichment ratio was at most 0.25.

Consider GKQF, for which the enrichment ratio is at most 0.25.

On to HSPK, for which the enrichment ratio is at most 0.25.

As to AWAR, the enrichment ratio was at most 0.25.

As for DECG, the enrichment ratio is at most 0.25.

With IAAK, the enrichment ratio is at most 0.25.

With LLYY, the enrichment ratio was at most 0.25.

For the variant VWRH, the enrichment ratio was at most 0.25.

Turning to ACNR, the enrichment ratio amounted to 0.959.

Consider WFKE, for which the enrichment ratio was at most 0.25.

In the case of KDTC, the enrichment ratio was at most 0.25.

MNWF: the enrichment ratio is at most 0.25.

Regarding KQLQ, the enrichment ratio was at most 0.25.

Regarding IRTD, the enrichment ratio was at most 0.25.

HGWE: the enrichment ratio is at most 0.25.

For SQTP, the enrichment ratio is at most 0.25.

Take RKHP: the enrichment ratio was at most 0.25.

Regarding ARKA, the enrichment ratio is at most 0.25.

With SHGF, the enrichment ratio came to 0.668.

As to MYLN, the enrichment ratio is at most 0.25.

Turning to NVCK, the enrichment ratio was at most 0.25.

With CQFL, the enrichment ratio was at most 0.25.

As for FFQS, the enrichment ratio is at most 0.25.

With WSKS, the enrichment ratio is at most 0.25.

As for YESP, the enrichment ratio is at most 0.25.

Take GDIH: the enrichment ratio was found to be 0.828.

Take VDCS: the enrichment ratio is at most 0.25.

As for VELL, the enrichment ratio was 0.435.

Consider EPQQ, for which the enrichment ratio was at most 0.25.

As to GQVY, the enrichment ratio is at most 0.25.

For QHTN, the enrichment ratio was at most 0.25.

As for PSVS, the enrichment ratio was at most 0.25.

Consider KKQP, for which the enrichment ratio is at most 0.25.

In the case of LQDV, the enrichment ratio was at most 0.25.

On to GVTN, for which the enrichment ratio is at most 0.25.

Take RKMS: the enrichment ratio was at most 0.25.

Regarding LWEV, the enrichment ratio is at most 0.25.

With VLQH, the enrichment ratio is at most 0.25.

For LNDP, the enrichment ratio was at most 0.25.

For TFGG, the enrichment ratio is at most 0.25.

For SYGW, the enrichment ratio is at most 0.25.

For PDTI, the enrichment ratio is at most 0.25.

For the variant NSVS, the enrichment ratio was at most 0.25.

In the case of PAVG, the enrichment ratio is at most 0.25.

With LGSF, the enrichment ratio was at most 0.25.

For KSAA, the enrichment ratio was at most 0.25.

Take DQSE: the enrichment ratio was at most 0.25.

Regarding CTYV, the enrichment ratio is at most 0.25.

As for DHRE, the enrichment ratio is at most 0.25.

For the variant RQCH, the enrichment ratio is at most 0.25.

Turning to DHRK, the enrichment ratio was at most 0.25.

NQFW: the enrichment ratio is at most 0.25.

On to KIRC, for which the enrichment ratio was at most 0.25.

As to GFLT, the enrichment ratio was at most 0.25.

Turning to QIVR, the enrichment ratio is at most 0.25.

For the variant VYCN, the enrichment ratio is at most 0.25.

For the variant VWIG, the enrichment ratio is at most 0.25.

With VAPN, the enrichment ratio was at most 0.25.

As for GQSY, the enrichment ratio is at most 0.25.

As to TFAV, the enrichment ratio amounted to 0.261.

With TKVY, the enrichment ratio stood at 4.34.

SIDR: the enrichment ratio is at most 0.25.

For the variant IFKY, the enrichment ratio was at most 0.25.

Turning to HECN, the enrichment ratio is at most 0.25.

For AKSD, the enrichment ratio was at most 0.25.

As for KCLK, the enrichment ratio is at most 0.25.

For the variant HNYS, the enrichment ratio is at most 0.25.

For the variant GQES, the enrichment ratio was at most 0.25.

Turning to GRDI, the enrichment ratio is at most 0.25.

Regarding HPWC, the enrichment ratio is at most 0.25.

Turning to PTIP, the enrichment ratio was at most 0.25.

With ENNF, the enrichment ratio is at most 0.25.

On to IHFV, for which the enrichment ratio is at most 0.25.

IRYV: the enrichment ratio was at most 0.25.

As for LWTK, the enrichment ratio was at most 0.25.

Take CSCP: the enrichment ratio is at most 0.25.

On to QGRM, for which the enrichment ratio is at most 0.25.

On to GKCA, for which the enrichment ratio is at most 0.25.

Consider GSEM, for which the enrichment ratio was at most 0.25.

For VFVQ, the enrichment ratio was at most 0.25.

On to CPCY, for which the enrichment ratio was at most 0.25.

VNNI: the enrichment ratio was at most 0.25.

As for NYAN, the enrichment ratio was at most 0.25.

Turning to PNTC, the enrichment ratio was at most 0.25.

Regarding SPFL, the enrichment ratio was at most 0.25.

In the case of HYSA, the enrichment ratio was at most 0.25.

With SFCA, the enrichment ratio was determined as 1.59.

As to AFVA, the enrichment ratio was at most 0.25.

In the case of EERI, the enrichment ratio was at most 0.25.

With MTRM, the enrichment ratio is at most 0.25.

WPPQ: the enrichment ratio was at most 0.25.

HDPY: the enrichment ratio was at most 0.25.

Turning to QMVY, the enrichment ratio was at most 0.25.

On to HLQK, for which the enrichment ratio is at most 0.25.

Consider KGNE, for which the enrichment ratio was at most 0.25.

As to RITR, the enrichment ratio is at most 0.25.

Consider NGEM, for which the enrichment ratio was at most 0.25.

WKEP: the enrichment ratio was at most 0.25.

For the variant DTKM, the enrichment ratio was at most 0.25.

Turning to SRWA, the enrichment ratio is at most 0.25.

In the case of DTSF, the enrichment ratio is at most 0.25.

Regarding YGMV, the enrichment ratio was 8.94.

Regarding IHHY, the enrichment ratio is at most 0.25.

On to NQPV, for which the enrichment ratio was at most 0.25.

RAQR: the enrichment ratio was at most 0.25.

Take WDDY: the enrichment ratio is at most 0.25.

In the case of EYLI, the enrichment ratio was 1.25.

For the variant NSIA, the enrichment ratio is at most 0.25.

YTTA: the enrichment ratio is at most 0.25.

Consider RFKT, for which the enrichment ratio was at most 0.25.

As to RVSH, the enrichment ratio is at most 0.25.

Consider MVTK, for which the enrichment ratio is at most 0.25.

In the case of GPCV, the enrichment ratio is at most 0.25.

Take QGVR: the enrichment ratio was at most 0.25.

Take IWDC: the enrichment ratio is at most 0.25.

As to IRPC, the enrichment ratio was at most 0.25.

With PGMY, the enrichment ratio is at most 0.25.

PTMG: the enrichment ratio was at most 0.25.

For the variant LVSY, the enrichment ratio is at most 0.25.

Consider IICK, for which the enrichment ratio was at most 0.25.

As to HDTH, the enrichment ratio was at most 0.25.

With MRQF, the enrichment ratio was at most 0.25.

Take TSFE: the enrichment ratio was at most 0.25.

In the case of TTPG, the enrichment ratio was at most 0.25.

SPKL: the enrichment ratio was at most 0.25.

Regarding GFHC, the enrichment ratio is at most 0.25.

For LSQS, the enrichment ratio is at most 0.25.

Turning to ENIG, the enrichment ratio is at most 0.25.

Take EDVC: the enrichment ratio was at most 0.25.

Take PRDQ: the enrichment ratio was at most 0.25.

For LLPM, the enrichment ratio was at most 0.25.

With PHFK, the enrichment ratio was at most 0.25.

Take WFDP: the enrichment ratio is at most 0.25.

DNEL: the enrichment ratio was at most 0.25.

In the case of AYHW, the enrichment ratio is at most 0.25.

Regarding ISQI, the enrichment ratio was at most 0.25.

HHPV: the enrichment ratio was at most 0.25.

With QDHP, the enrichment ratio is at most 0.25.

For the variant FWAF, the enrichment ratio is at most 0.25.
